{"source": "PubChem BioAssay AID938", "about": "(National Center for Advancing Translational Sciences (NCATS), 2007)", "note": "The whole screen tested about 73,000 compounds, of which about 1,800 (2.5%) were called active. The inconclusive results got no clear call from the source; some entries with a clear call stand among them for comparison. Calls follow the shape of the dose curve; as a rule, active = well fitted activation curve with a large enough effect; inconclusive = small, poorly fitted or top-dose-only effect; inactive = no such curve, though single readings can be large or run the other way. Potencies of inconclusive entries are left out as doubtful fits. Potency is read from the fitted curve at half-maximal effect; tags tell the direction and shape of the fitted curve."}
{"assay": "qHTS Assay for Agonists of the Thyroid Stimulating Hormone Receptor: Activators of Intracellular cAMP Concentrations in Parental HEK 293; also: nearly all actives have a fitted effect of over 55% in size; as to activation: % of control where 0% means no effect", "settings": "parental HEK293 CNG cAMP sensor, membrane potential fluorescence; activation: at 57.1 µM (top of the series) unless noted", "outline": "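Counterscreen for endogenous-receptor signalling: CNG-channel HEK 293 cells report cAMP rise by membrane depolarization. After 60 min dye equilibration with 100 uM RO 20-1724, compounds incubated 30 min before bottom-read fluorescence at 590 nm.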"}
{"smiles": "Cc1cc(C)n2nc(C(=O)Oc3ccc4c(c3)OCO4)nc2n1", "Potency": "inconclusive [activator, single point]"}
{"smiles": "Cc1cc(C)n(-c2ncc(-c3ccccc3)nn2)n1", "activation": "inactive: -4.08%"}
{"smiles": "Cc1ccc(SCCNS(=O)(=O)c2ccc(F)cc2)cc1", "activation": "inactive: 18.2% [at 11.4 µM]"}
{"smiles": "CC(C)C[C@@H](CC(=O)N[C@@H](CCC(=O)O)CC(=O)O)NC(=O)[C@@H]1CCCC[C@H]1NC(=O)C[C@H](CCCN)NC(=O)C[C@H](Cc1c[nH]c2ccccc12)NC(=O)[C@@H]1CNCC[C@H]1N", "activation": "inactive: 19.5%"}
{"smiles": "CCOC(=O)c1ccc(Cn2c(-c3ccccc3)nnc2-c2ccccc2)o1", "Potency": "inconclusive [activator, partial curve]"}
{"smiles": "O=[N+]([O-])c1ccc([C@@H](Nc2ccccc2)c2ccc3cccnc3c2O)cc1", "activation": "inactive: -0.569% [at 11.4 µM]"}
{"smiles": "CCNc1ncc2nc(-c3ccccc3)c(=O)n(Cc3ccc(F)cc3)c2n1", "Potency": "inconclusive [activator, single point]"}
{"smiles": "O=C(Nc1cnccn1)c1cccc(C(F)(F)F)c1", "Potency": "active: 20 µM"}
{"smiles": "CCC(CC)C(=O)Nc1c2c(nn1-c1ccc(OC)cc1)CS(=O)(=O)C2", "Potency": "inconclusive [activator, partial curve]"}
{"smiles": "COc1cccc(-n2nnnc2SCC(=O)NCCc2ccccc2)c1", "Potency": "inconclusive [activator, partial curve]"}
{"smiles": "O=C(c1ccc(=O)[nH]c1)N(Cc1ccco1)C1(C(=O)NC2CCCCC2)CCCCC1", "Potency": "inconclusive [activator, partial curve]"}
{"smiles": "C1COC1", "Potency": "inconclusive [activator, single point]"}
{"smiles": "Cc1nn(-c2ccccc2)c2sc(C(=O)OCn3nnc4ccccc4c3=O)cc12", "activation": "inactive: 4.17%"}
{"smiles": "Cc1cc(C(=O)CSc2nc3ccccc3n2CCC#N)c(C)n1Cc1cccs1", "Potency": "inconclusive [activator, single point]"}
{"smiles": "Cc1nc2nc3c(cn2n1)C(=O)CC(c1ccccc1)C3", "note": "(configuration not stated)", "Potency": "inconclusive [activator, partial curve]"}
{"smiles": "COc1ccc2[nH]cc(CCNc3ccnc(-c4ccccc4C(F)(F)F)n3)c2c1", "activation": "inactive: -20.8%"}
{"smiles": "CCOC(=O)c1oc2ccccc2c1NC(=O)c1ccc2c(c1)OCO2", "Potency": "inconclusive [activator, single point]"}
{"smiles": "CCCCN1CSC(=S)N(Cc2ccccc2)C1", "activation": "inactive: 5.29% [at 11.4 µM]"}
{"smiles": "COc1cccc(NC(=O)c2ccccc2-c2nc(-c3ccc(F)cc3)no2)c1", "Potency": "active: 31.6 µM"}
{"smiles": "CC(=O)NCCn1c(C)cc2ccccc21", "activation": "inactive: 11.1%"}
{"smiles": "C=CCOn1c(=O)c(=O)n(OCc2ccccc2)c2ccccc21", "activation": "inactive: 19.1%"}
{"smiles": "C=CCN1CCN(C(c2cc(OC)ccc2OC)c2nnnn2CC2CCCO2)CC1", "note": "(configuration not stated)", "Potency": "inconclusive [activator, partial curve]"}
{"smiles": "N#Cc1ccc(OC(=O)c2ccc(N=C(N)N)cc2)cc1", "activation": "inactive: 7.89% [at 11.4 µM]"}
{"smiles": "O=C(O)[C@@H]1[C@@H]2O[C@H]([C@@H](Br)[C@H]2Br)[C@H]1C(=O)O", "Potency": "inconclusive [activator, single point]"}
{"smiles": "CC(C(=O)NCc1ccco1)n1nc(-c2ccccc2)c2cc(Cl)ccc21", "note": "(configuration not stated)", "Potency": "inconclusive [activator, single point]"}
{"smiles": "O=C(O)CSc1ccc2ccccc2n1", "activation": "inactive: 19.2%"}
{"smiles": "N[C@@H](C(=O)O)[C@H](O)C(=O)O", "activation": "inactive: 1.63%"}
{"smiles": "O=C(Nc1ccccc1N1CCCCC1)c1cccc(F)c1", "Potency": "inconclusive [activator, single point]"}
{"smiles": "COCCn1c(Cc2ccccc2)nnc1SCC(=O)N(C)C", "Potency": "inconclusive [activator, partial curve]"}
{"smiles": "COc1cccc(-c2cc(C(=O)N3CCCCCC3)no2)c1", "activation": "inactive: 17.4%"}
{"smiles": "COC(=O)c1cccc(NC(=O)c2cc3sccc3n2C)c1", "Potency": "active: 12.6 µM"}
{"smiles": "Cc1cccc2cc(C#N)c(SCC(=O)N3CCC(C)CC3)nc12", "Potency": "active: 25.1 µM"}
{"smiles": "COc1cccc(NC(=O)c2oc3ccccc3c2NC(C)=O)c1", "Potency": "inconclusive [activator, single point]"}
{"smiles": "COc1ccccc1C1CC(c2ccc(F)cc2)Nc2ncnn21", "note": "(configuration not stated)", "Potency": "inconclusive [activator, partial curve]"}
{"smiles": "COc1ccccc1Cc1nc(-c2ccc(C)cc2)no1", "Potency": "inconclusive [activator, partial curve]"}
{"smiles": "Cc1cc(C)cc(N)c1", "Potency": "inconclusive [activator, single point]"}
{"smiles": "Cc1ccc2c(c1)N(CC(=O)N1CCc3ccccc3C1)C(=O)CO2", "Potency": "inconclusive [activator, single point]"}
{"smiles": "CCN1C(=O)C(NC(C)=O)c2cc(Br)ccc21", "note": "(configuration not stated)", "Potency": "inconclusive [activator, partial curve]"}
{"smiles": "Cc1ccc(C)c(N2CCN(C(=O)CCc3nc4ccccc4[nH]3)CC2)c1", "activation": "inactive: 1.94%"}
{"smiles": "CCCN(C#N)c1nc(NCC)nc(NC(C)C)n1", "Potency": "inconclusive [activator, full curve, poor fit]"}
{"smiles": "O=C(c1ccco1)N1CCC2(CCCN(c3ccccc3)C2)CC1", "activation": "inactive: -3.95%"}
{"smiles": "COc1ccc(C(=O)CSc2nnc(COc3ccc(C#N)cc3)n2-c2ccccc2)cc1", "Potency": "inconclusive [activator, partial curve]"}
{"smiles": "O=C(CSc1nnc(-c2ccccc2Br)o1)Nc1cccc2ccccc12", "Potency": "inconclusive [activator, partial curve]"}
{"smiles": "CCCN(CCC)c1nc(NC2CCN(C(=O)OCC)CC2)nc(OC)n1", "Potency": "inconclusive [activator, partial curve]"}
{"smiles": "Cc1cc2cc(CN(Cc3ccc4c(c3)OCO4)C(=O)c3ccco3)c(=O)[nH]c2cc1C", "Potency": "inconclusive [activator, single point]"}
{"smiles": "Cc1cc(C)c2ccc(N)nc2c1O", "Potency": "inconclusive [activator, single point]"}
{"smiles": "O=C(c1ccccc1C(=O)N1CCN(c2ccccc2F)CC1)N1CCN(c2ccccc2F)CC1", "Potency": "active: 15.8 µM"}
{"smiles": "CCCC(C(=O)NCc1ccco1)N(C(=O)CNS(=O)(=O)c1ccccc1)c1ccccc1OC", "note": "(configuration not stated)", "Potency": "active: 25.1 µM"}
{"smiles": "Cc1noc(NS(=O)(=O)c2ccc(NC(=O)CSc3nc4c(cc3C#N)CCC4)cc2)c1C", "Potency": "inconclusive [activator, single point]"}
{"smiles": "CC(C)[C@H](NC(=O)OCc1ccccc1)C(=O)N[C@H](C=O)Cc1ccccc1", "activation": "inactive: 14.9%"}
{"smiles": "Cc1ccc2c(CN3CCN(Cc4ccc5c(c4)OCO5)CC3)cc(=O)oc2c1C", "Potency": "inconclusive [activator, single point]"}
{"smiles": "COc1ccccc1C(=O)N1CCCC(c2nc(-c3cc(OC)c(OC)c(OC)c3)no2)C1", "note": "(configuration not stated)", "Potency": "inconclusive [activator, single point]"}
{"smiles": "O=C(CSCCNS(=O)(=O)c1ccccc1)Nc1ccccc1", "Potency": "inconclusive [activator, single point]"}
{"smiles": "O=C(NCCN1CCN(c2cccc(Cl)c2)CC1)c1cccn2c(=O)c3ccccc3nc12", "Potency": "inconclusive [activator, single point]"}
{"smiles": "CC(C)(CC(=O)O)Cc1nc(-c2ccc(Cl)cc2)no1", "Potency": "inconclusive [activator, single point]"}
{"smiles": "Cc1ccc2c(c1)N(CCC(=O)NCC1COc3ccccc3O1)C(=O)CO2", "note": "(configuration not stated)", "Potency": "inconclusive [activator, single point]"}
{"smiles": "O=C(c1cnccn1)N1CCC2(CCN(Cc3nccs3)CC2)CC1", "activation": "inactive: 6.64%"}
{"smiles": "CCN(CC)CCCCn1c(-c2ccccc2)nc2c(NC3CCCCC3)nc(C)nc21", "Potency": "inconclusive [activator, single point]"}
{"smiles": "CCOC(=O)C1=C(N)OC2=C(C(=O)CC(C)(C)C2)C1c1cccnc1", "note": "(configuration not stated)", "Potency": "inconclusive [activator, single point]"}
{"smiles": "Cc1cccc(N2CCN(C(=O)CCNC(=O)Cn3ccc4ccccc4c3=O)CC2)c1C", "Potency": "inconclusive [activator, single point]"}
{"smiles": "CC1CC(C)CN(C(=O)CCCn2c(=S)[nH]c3ccccc3c2=O)C1", "note": "(configuration not stated)", "Potency": "inconclusive [activator, partial curve, poor fit]"}
{"smiles": "COc1ccc(-c2cc3nc(C)cc(NCCO)n3n2)cc1", "activation": "inactive: 10.8%"}
{"smiles": "Cc1ccc(C(=O)OCC(=O)c2ccc(Cl)s2)s1", "activation": "inactive: 18.3%"}
{"smiles": "O=C1C(C=NCc2ccco2)=C(O)c2ccccc21", "activation": "inactive: 5.19%"}
{"smiles": "O=C(O)CCC(=O)N1CCc2cc(S(=O)(=O)NC3CCCC3)ccc21", "Potency": "inconclusive [activator, partial curve, poor fit]"}
{"smiles": "COc1cccc(CC(=O)NCC2COc3ccccc3O2)c1OC", "note": "(configuration not stated)", "Potency": "inconclusive [activator, single point]"}
{"smiles": "O=C(O)CN(Cc1ccccc1)S(=O)(=O)c1ccc(F)cc1", "activation": "inactive: 7.4%"}
{"smiles": "O=C(NC1(C(=O)NC2CCCCC2)CCCCC1)c1ccc2c(c1)OCO2", "Potency": "inconclusive [activator, single point]"}
{"smiles": "COCCN(CCOC)c1nc(C)nc2c1nc(-c1ccccc1)n2CCN(C)C", "Potency": "inconclusive [activator, partial curve]"}
{"smiles": "COCCCNC(=O)CN(Cc1ccc(Cl)cc1)S(C)(=O)=O", "Potency": "inconclusive [activator, single point]"}
{"smiles": "N#Cc1c(C(F)(F)F)cc(-c2ccco2)nc1SCc1ccncc1", "Potency": "inconclusive [activator, full curve]"}
{"smiles": "CCc1ccc(N2CC34C=CC(O3)C(C(=O)OC(C)C)C4C2=O)cc1", "note": "(configuration not stated)", "Potency": "inconclusive [activator, single point]"}
